Measured values reported in PubChem BioAssay AID938 (National Center for Advancing Translational Sciences (NCATS), 2007).
The campaign covered roughly 73,000 compounds. About 1,800 (2.5%) were called active. Inconclusive means that the source gave no clear call. Such entries were picked first, then a sample of the others. Calls follow the shape of the dose curve; as a rule, active = well fitted activation curve with a large enough effect; inconclusive = small, poorly fitted or top-dose-only effect; inactive = no such curve, though single readings can be large or run the other way. Potencies of inconclusive entries are left out as doubtful fits.

Experiment: qHTS Assay for Agonists of the Thyroid Stimulating Hormone Receptor: Activators of Intracellular cAMP Concentrations in Parental HEK 293; also: nearly all actives have a fitted effect of over 55% in size; as to activation: % of control where 0% means no effect
Settings: parental HEK293 CNG cAMP sensor, membrane potential fluorescence; activation: at 57.1 µM (top of the series) unless noted
Procedure, shortened: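 Counterscreen for endogenous-receptor signalling: CNG-channel HEK 293 cells report cAMP rise by membrane depolarization. After 60 min dye equilibration with 100 uM RO 20-1724, compounds incubated 30 min before bottom-read fluorescence at 590 nm.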
Potency is read from the fitted curve at half-maximal effect; tags tell the direction and shape of the fitted curve.

Row | SMILES | Potency | activation
1 | Nc1c(S(=O)(=O)c2cccc(Cl)c2)c2nc3ccccc3nc2n1CCN1CCOCC1 | inconclusive [activator, single point] | –
2 | Cc1cc(NC(=O)CC2CCCC2)n(-c2nc3ccccc3[nH]2)n1 | active: 25.1 µM | –
3 | Cc1cccc(CNc2ccnc(-c3cccnc3)n2)c1 | inconclusive [activator, single point] | –
4 | O=C(c1ccco1)N1CCN(C(=O)C2CCN(S(=O)(=O)c3cccc4nsnc34)CC2)CC1 | inconclusive [activator, full curve, poor fit] | –
5 | CC[C@H](C)C(=O)O[C@H]1CCC=C2C=C[C@H](C)[C@H](CC[C@@H]3C[C@H](O)CC(=O)O3)[C@H]21 | inconclusive [activator, partial curve, poor fit] | –
6 | CCOC(=O)c1cccc(NC(=O)CSc2nc3cccnc3n2C)c1 | inconclusive [activator, partial curve] | –
7 | COc1ccc(-n2c(C)cc(C(=O)CSc3nnc(-c4cccs4)o3)c2C)cc1 | inconclusive [activator, partial curve] | –
8 | CCn1c2ccccc2c2cc(N)ccc21 | – | inactive: -6.35%
9 | CCCn1c(-c2ccc(F)cc2)nc2c(NCCN3CCCC3)nc(C)nc21 | inconclusive [activator, partial curve] | –
10 | CCCCN(C(=O)c1c(C)[nH]c(C(=O)OCC)c1C)c1ccccc1 | – | inactive: 16.7%
11 | CCOc1ccc(C2c3c(oc4cc(C)c(C)cc4c3=O)C(=O)N2CCCN2CCOCC2)cc1 (configuration not stated) | – | inactive: 8.88%
12 | Cc1onc(-c2ccccc2Cl)c1C(=O)Nc1nnc(C(C)C)s1 | inconclusive [activator, single point] | –
13 | CCn1c(SCC(=O)Nc2cccc(F)c2)nnc1-c1cc2cc(Br)ccc2o1 | inconclusive [activator, partial curve] | –
14 | O=S(=O)(c1ccc(NC2CCCc3ccccc32)nc1)N1CCOCC1 (configuration not stated) | – | inactive: 19.7%
15 | CC(C)c1ccc(/C=C2\C=C(c3ccc4ccccc4c3)OC2=O)cc1 | – | inactive: 10.7% [at 11.4 µM]
16 | CC(C)c1ccc(NC(=O)CCNS(=O)(=O)c2cccc3nonc23)cc1 | inconclusive [activator, partial curve] | –
17 | CCOc1ccc(N(CCC#N)S(=O)(=O)c2ccc(OC)cc2)cc1 | inconclusive [activator, partial curve] | –
18 | Cc1ccc(C(=O)Nc2ccc(S(=O)(=O)O)c3cc(S(=O)(=O)O)cc(S(=O)(=O)O)c23)cc1NC(=O)c1cccc(NC(=O)Nc2cccc(C(=O)Nc3cc(C(=O)Nc4ccc(S(=O)(=O)O)c5cc(S(=O)(=O)O)cc(S(=O)(=O)O)c45)ccc3C)c2)c1 | inconclusive [activator, single point] | –
19 | COC(=O)c1sc(S(=O)(=O)N2CCCCC2)c(C(=O)OC)c1C | inconclusive [activator, single point] | –
20 | CN(C)C(=O)c1ccc(-c2cncnc2NC2CCNCC2)cc1 | inconclusive [activator, partial curve, poor fit] | –
21 | Cc1cc(=S)[nH]c2ccccc12 | – | inactive: 3.96%

Row | SMILES | Potency | activation
22 | Cc1ccc(C(=O)NCCCCNC(=O)c2ccc(C)o2)o1 | inconclusive [activator, single point] | –
23 | Cc1noc(C)c1-c1nccc(N2CCOCC2)n1 | inconclusive [activator, single point] | –
24 | CCCCCCCCCCCCCCCCCC(=O)O[C@H](CC(=O)O)C[N+](C)(C)C | inconclusive [activator, full curve] | –
25 | O=C(c1ccncc1)N1CCC[C@@]2(CCN(Cc3cc(C(F)(F)F)cc(C(F)(F)F)c3)C2)C1 | inconclusive [activator, partial curve, poor fit] | –
26 | CCn1c(SCC(=O)Nc2ccc(N3CCOCC3)c(Cl)c2)nnc1-c1ccc(N)cc1 | – | inactive: -9.45%
27 | Fc1cnc(N2CCOCC2)nc1N1CCc2ccccc21 | inconclusive [activator, full curve] | –
28 | Cc1noc(C)c1-c1cc(N2CCN(C)CC2)ncn1 | inconclusive [activator, single point] | –
29 | CCCCCc1c(O)c2ccccc2[nH]c1=O | – | inactive: 10.5%
30 | CCCc1nc(SC2CCCC2)c2c(=O)n(C)c(=O)n(C)c2n1 | – | inactive: 2.55%
31 | CCC1CCCCN1C(=O)CSc1nnc(-c2cccc(Cl)c2)o1 (configuration not stated) | inconclusive [activator, single point] | –
32 | COc1ccccc1N1CCN(C(=O)c2ccc(C(C)(C)C)cc2)CC1 | inconclusive [activator, single point] | –
33 | O=C(c1csnn1)N1CCC2(CC1)CCN(c1cccc(-c3ccccc3)c1)CC2 | inconclusive [activator, single point] | –
34 | O=C(O)c1ccc(S(=O)(=O)Cc2ccccc2)cc1 | active: 3.16 µM | –
35 | CCc1cc2c(=O)c(-c3ccc4c(c3)OCCO4)coc2cc1OC(=O)c1ccco1 | inconclusive [activator, partial curve] | –
36 | CCCn1c(SCC(=O)N2CCc3ccccc32)nnc1-c1ccco1 | inconclusive [activator, single point] | –
37 | CCCCn1c(=O)n(C)c(=O)c2c(C(F)(F)F)cc(-c3ccncc3)nc21 | inconclusive [activator, partial curve] | –
38 | Fc1ccc(Cn2nnnc2CN2CCN(C3CCCC3)CC2)cc1 | inconclusive [activator, partial curve] | –
39 | Cn1cccc1-c1nc2ccc(NC(=O)c3cccs3)cc2[nH]1 | – | inactive: 1.38%
40 | Cc1ccc2c3c(c(SCC(=O)Nc4nonc4C)nc2c1)CCCC3 | active: 7.94 µM | –
41 | CC(C)CO/N=C1/[C@H]2O[C@@H]2[C@@H](O)[C@H]2[C@H]1CCn1c(=O)n(Cc3cc4c(cc3Cl)OCO4)c(=O)n12 | – | inactive: 1.47% [at 11.4 µM]
42 | O=C(Nc1ccon1)c1cccc(Cl)c1 | inconclusive [activator, single point] | –
